This is one part of the list. Cut-off read from the data, not from the text of the source: active = 3.2 or more and inactive = the rest. The signal is at background level for most entries.
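Note: displayed peptides selected on beads carrying the immobilized SH2 domain, with library peptides lacking any tyrosine serving as negative controls.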

The target of the first test is SHP2 C-SH2 domain E139D. The test can be described thus: enrichment score (SH2-bound / input frequency) (ratio); bacterial display of known human phosphotyrosine sites (pTyr-Var adds point mutants) read by sequencing; higher = stronger binding; tyrosines were phosphorylated by kinases first. To be noted: peptide library: pTyr-Var.
As to PRLMLYNPTTY [EGFR_Y270_P266R], the enrichment score is inactive: 1.07.
RHRSGYVLIAM [EFR3A_Y73]: the enrichment score is inactive: 2.33.
Still for that read-out and setting: for MVTSGYKAKTI [EFR3A_Y447] the value was inactive: 0.731; for EKLQKYYRQNP [EHHADH_Y682], inactive: 0.905.
As for GGMAKYTRLHN [EHHADH_Y4_E3K], the enrichment score is inactive: 0.963.
For the molecule IKNSGYISQYL [EIF2AK3_Y585_R588Q], the enrichment score was inactive: 1.09.
As for RNEAFYDTFST [EFCAB3_Y372_S370A], the enrichment score was inactive: 0.907.
The same measure, in the same setting: with PPLMLYNPTTF [EGFR_Y270_YF] the figure was inactive: 1.1; with RGNMFYENSFA [EGFR_Y113_YF], inactive: 1.43; with RLGLQYSQGLV [EIF2B4_Y214], inactive: 1.18.
The same measure, in the same setting: for KLQKFYRKNPD [EHHADH_Y683_Q685K_YF] the value was inactive: 0.856.
Still for that read-out and setting: for PLQHVYKIGGI [EEF1A2_Y254_D252H] the value was inactive: 1.03; for MDDDQYALLTA [EFCAB6_Y675_T680A], inactive: 0.635.
GGMAEYTRLHN [EHHADH_Y4]: the enrichment score was inactive: 0.736.
On the same count and under the same terms, for VFSATYHPDHW [EFCAB12_Y544_P541S_YF] the value was inactive: 1.12; for EKLQKYFRQNP [EHHADH_Y682_YF], inactive: 1.09.
On to GIADDYDKKKL [EIF1_Y54], for which the enrichment score was inactive: 0.508.
Same read-out and setting: for STEEQYRICQV [EFHC1_Y115_R118C] the value was inactive: 0.802.

The next test concerns the target SHP2 C-SH2 domain wild-type. The test is described as above. To be noted: peptide library: pTyr-Var.
Turning to PRLMLYNPTTY [EGFR_Y270_P266R], the enrichment score is inactive: 1.21.
On the same count and under the same terms, for RHRSGYVLIAM [EFR3A_Y73] the value was inactive: 2.72.
Same read-out and setting: with MVTSGYKAKTI [EFR3A_Y447] the figure was inactive: 0.509; with EKLQKYYRQNP [EHHADH_Y682], inactive: 0.887.
The same measure, in the same setting: for GGMAKYTRLHN [EHHADH_Y4_E3K] the value was inactive: 1.09.
Consider IKNSGYISQYL [EIF2AK3_Y585_R588Q], for which the enrichment score is inactive: 1.18.
Still for that read-out and setting: for RNEAFYDTFST [EFCAB3_Y372_S370A] the value was inactive: 0.937; for PPLMLYNPTTF [EGFR_Y270_YF], inactive: 0.927; for RGNMFYENSFA [EGFR_Y113_YF], inactive: 1.17.
In the case of RLGLQYSQGLV [EIF2B4_Y214], the enrichment score was inactive: 1.19.
The same measure, in the same setting: for KLQKFYRKNPD [EHHADH_Y683_Q685K_YF] the value was inactive: 0.612.
For PLQHVYKIGGI [EEF1A2_Y254_D252H], the enrichment score was inactive: 0.969.
The same measure, in the same setting: with MDDDQYALLTA [EFCAB6_Y675_T680A] the figure was inactive: 0.53.
As for GGMAEYTRLHN [EHHADH_Y4], the enrichment score was inactive: 1.
Still for that read-out and setting: for VFSATYHPDHW [EFCAB12_Y544_P541S_YF] the value was inactive: 0.868; for EKLQKYFRQNP [EHHADH_Y682_YF], inactive: 0.916.
The same measure, in the same setting: with GIADDYDKKKL [EIF1_Y54] the figure was inactive: 0.493.
Turning to STEEQYRICQV [EFHC1_Y115_R118C], the enrichment score was inactive: 1.01.

The next test has as its target SHP2 N-SH2 domain L43F. Described as above. To be noted: peptide library: pTyr-Var.
Take PRLMLYNPTTY [EGFR_Y270_P266R]: the enrichment score was inactive: 1.75.
For the molecule RHRSGYVLIAM [EFR3A_Y73], the enrichment score was inactive: 2.65.
The same measure, in the same setting: for MVTSGYKAKTI [EFR3A_Y447] the value was inactive: 0.555.
Same read-out and setting: for EKLQKYYRQNP [EHHADH_Y682] the value was inactive: 1.08; for GGMAKYTRLHN [EHHADH_Y4_E3K], inactive: 1.01; for IKNSGYISQYL [EIF2AK3_Y585_R588Q], inactive: 0.981.
Still for that read-out and setting: with RNEAFYDTFST [EFCAB3_Y372_S370A] the figure was inactive: 0.815.
As to PPLMLYNPTTF [EGFR_Y270_YF], the enrichment score is inactive: 1.13.
Regarding RGNMFYENSFA [EGFR_Y113_YF], the enrichment score was inactive: 1.89.
Take RLGLQYSQGLV [EIF2B4_Y214]: the enrichment score is inactive: 1.26.
With KLQKFYRKNPD [EHHADH_Y683_Q685K_YF], the enrichment score is inactive: 0.766.
For PLQHVYKIGGI [EEF1A2_Y254_D252H], the enrichment score is inactive: 0.675.
The same measure, in the same setting: for MDDDQYALLTA [EFCAB6_Y675_T680A] the value was inactive: 0.752; for GGMAEYTRLHN [EHHADH_Y4], inactive: 0.744; for VFSATYHPDHW [EFCAB12_Y544_P541S_YF], inactive: 1.07.
For the molecule EKLQKYFRQNP [EHHADH_Y682_YF], the enrichment score is inactive: 0.728.
For GIADDYDKKKL [EIF1_Y54], the enrichment score was inactive: 0.546.
Same read-out and setting: for STEEQYRICQV [EFHC1_Y115_R118C] the value was inactive: 0.761.

Another test deals with SHP2 N-SH2 domain T42A. The description is as above. To be noted: peptide library: pTyr-Var.
In the case of PRLMLYNPTTY [EGFR_Y270_P266R], the enrichment score is inactive: 1.14.
Consider RHRSGYVLIAM [EFR3A_Y73], for which the enrichment score was inactive: 2.05.
Still for that read-out and setting: for MVTSGYKAKTI [EFR3A_Y447] the value was inactive: 0.514; for EKLQKYYRQNP [EHHADH_Y682], inactive: 0.646; for GGMAKYTRLHN [EHHADH_Y4_E3K], inactive: 1.
The same measure, in the same setting: for IKNSGYISQYL [EIF2AK3_Y585_R588Q] the value was inactive: 0.82; for RNEAFYDTFST [EFCAB3_Y372_S370A], inactive: 0.731; for PPLMLYNPTTF [EGFR_Y270_YF], inactive: 0.965.
RGNMFYENSFA [EGFR_Y113_YF]: the enrichment score is inactive: 1.47.
On the same count and under the same terms, for RLGLQYSQGLV [EIF2B4_Y214] the value was inactive: 1.1.
Same read-out and setting: with KLQKFYRKNPD [EHHADH_Y683_Q685K_YF] the figure was inactive: 0.62; with PLQHVYKIGGI [EEF1A2_Y254_D252H], inactive: 0.963; with MDDDQYALLTA [EFCAB6_Y675_T680A], inactive: 0.485.
Consider GGMAEYTRLHN [EHHADH_Y4], for which the enrichment score was inactive: 0.933.
Same read-out and setting: for VFSATYHPDHW [EFCAB12_Y544_P541S_YF] the value was inactive: 1.04.
The same measure, in the same setting: with EKLQKYFRQNP [EHHADH_Y682_YF] the figure was inactive: 0.965.
GIADDYDKKKL [EIF1_Y54]: the enrichment score was inactive: 0.638.
Consider STEEQYRICQV [EFHC1_Y115_R118C], for which the enrichment score is inactive: 0.864.

In the next test the target is SHP2 N-SH2 domain T52S. Described as above. To be noted: peptide library: pTyr-Var.
In the case of PRLMLYNPTTY [EGFR_Y270_P266R], the enrichment score is inactive: 1.26.
Take RHRSGYVLIAM [EFR3A_Y73]: the enrichment score was inactive: 2.41.
On to MVTSGYKAKTI [EFR3A_Y447], for which the enrichment score was inactive: 0.703.
For EKLQKYYRQNP [EHHADH_Y682], the enrichment score was inactive: 0.703.
Same read-out and setting: for GGMAKYTRLHN [EHHADH_Y4_E3K] the value was inactive: 0.961; for IKNSGYISQYL [EIF2AK3_Y585_R588Q], inactive: 1.02.
With RNEAFYDTFST [EFCAB3_Y372_S370A], the enrichment score is inactive: 0.829.
As for PPLMLYNPTTF [EGFR_Y270_YF], the enrichment score was inactive: 0.973.
On to RGNMFYENSFA [EGFR_Y113_YF], for which the enrichment score is inactive: 1.79.
Consider RLGLQYSQGLV [EIF2B4_Y214], for which the enrichment score is inactive: 0.99.
In the case of KLQKFYRKNPD [EHHADH_Y683_Q685K_YF], the enrichment score was inactive: 0.726.
On the same count and under the same terms, with PLQHVYKIGGI [EEF1A2_Y254_D252H] the figure was inactive: 0.951.
Take MDDDQYALLTA [EFCAB6_Y675_T680A]: the enrichment score was inactive: 0.682.
The same measure, in the same setting: for GGMAEYTRLHN [EHHADH_Y4] the value was inactive: 0.776; for VFSATYHPDHW [EFCAB12_Y544_P541S_YF], inactive: 1.04.
The same measure, in the same setting: with EKLQKYFRQNP [EHHADH_Y682_YF] the figure was inactive: 0.776; with GIADDYDKKKL [EIF1_Y54], inactive: 0.586.
Still for that read-out and setting: for STEEQYRICQV [EFHC1_Y115_R118C] the value was inactive: 0.781.

The next test has as its target SHP2 N-SH2 domain wild-type. The test is described as above. To be noted: peptide library: pTyr-Var.
PRLMLYNPTTY [EGFR_Y270_P266R]: the enrichment score was inactive: 1.05.
On the same count and under the same terms, with RHRSGYVLIAM [EFR3A_Y73] the figure was inactive: 2.39; with MVTSGYKAKTI [EFR3A_Y447], inactive: 0.837; with EKLQKYYRQNP [EHHADH_Y682], inactive: 0.968.
Same read-out and setting: for GGMAKYTRLHN [EHHADH_Y4_E3K] the value was inactive: 1.04.
Same read-out and setting: with IKNSGYISQYL [EIF2AK3_Y585_R588Q] the figure was inactive: 1.08.
Take RNEAFYDTFST [EFCAB3_Y372_S370A]: the enrichment score is inactive: 0.765.
Regarding PPLMLYNPTTF [EGFR_Y270_YF], the enrichment score was inactive: 0.754.
For the molecule RGNMFYENSFA [EGFR_Y113_YF], the enrichment score is inactive: 1.47.
Regarding RLGLQYSQGLV [EIF2B4_Y214], the enrichment score is inactive: 0.962.
Turning to KLQKFYRKNPD [EHHADH_Y683_Q685K_YF], the enrichment score is inactive: 0.549.
On the same count and under the same terms, with PLQHVYKIGGI [EEF1A2_Y254_D252H] the figure was inactive: 1.61; with MDDDQYALLTA [EFCAB6_Y675_T680A], inactive: 0.801.
Turning to GGMAEYTRLHN [EHHADH_Y4], the enrichment score was inactive: 0.778.
On the same count and under the same terms, with VFSATYHPDHW [EFCAB12_Y544_P541S_YF] the figure was inactive: 1.13; with EKLQKYFRQNP [EHHADH_Y682_YF], inactive: 0.999; with GIADDYDKKKL [EIF1_Y54], inactive: 0.817.
On the same count and under the same terms, for STEEQYRICQV [EFHC1_Y115_R118C] the value was inactive: 1.26.

The record behind these values is the supplement of paper PMC10369915.
